ChEMBL document CHEMBL1157539, “Thousands of chemical starting points for antimalarial lead identification” (Nature, 2010)
Whole data set: some 13,000 compounds, median “IFI” near 4, cut for the highest 2% near 17. Some of the results follow.

Test: GSK_TCMDC: Inhibition Frequency Index (IFI). The number of non-kinase HTS assays where a compound showed > 50 % inhibition, expressed as a percentage of the number of such assays in which the compound was tested (-0 is zero)
Assay type: functional

| SMILES | IFI |
| --- | --- |
| Cc1ccc(C(=O)Nc2ccc(Nc3ccnc4cc(-c5ccncc5)ccc34)cc2O)cc1 | 2.94% |
| COc1ccc2nccc([C@@H](O)CN3CCC(NCCOc4ccc(F)cc4F)CC3)c2c1 | 1.59% |
| Fc1ccc2[nH]c(-c3ccc(-c4ccc(CN5CCC(CCN6CCCCC6)CC5)cc4)s3)nc2c1 | 8.33% |
| COc1ccccc1N1CCN(C(C(=O)NCc2ccc3c(c2)OCO3)c2ccc3c(c2)OCCCO3)CC1 (centres undefined) | 1.38% |
| CC(C)[C@H](NC(=O)c1ccc(O)c(-c2ccc(Cl)c(Cl)c2)c1)C(=O)NC1CCCCCC1 | 1.48% |
| Cc1cccc2nc(-c3ccc(-c4cccc(NC(=O)Nc5ccc(F)c(F)c5F)c4)cc3)[nH]c12 | 2.91% |
| O=C(Nc1cccc(F)c1)N1CCC(CN2CCOC(c3ccccc3)(c3ccccc3)C2)CC1 | 2.33% |
| CC(=O)Nc1ccc(S(=O)(=O)Nc2ccc(Nc3nc(C)cc(N(C)C)n3)cc2)cc1 | 0% |
| COc1cc(Nc2ccnc3cc(-c4nccs4)ccc23)ccc1OCCCc1nc2ccccc2[nH]1 | 9.22% |
| COc1cc(NC(=O)N2CCc3ccc(OCCN4CCCCC4)cc32)cc(C(F)(F)F)c1 | 3.57% |
| COc1ccc(CN2CCCN(Cc3cccc(C(=O)Nc4ccc(C(C)(C)C)cc4)c3)CC2)cc1 | 11.2% |
| COc1cc(NC(=O)NC(CCN2CCC3(CCc4ccccc43)CC2)c2ccc(Cl)c(Cl)c2)cc(OC)c1OC (centres undefined) | 6.9% |
| O=C(Nc1ccc(Oc2ccccc2)cc1)N(Cc1ccc(-c2cccc(CN3CCNCC3)c2)cc1)C1CCN(Cc2ccccc2)CC1 | 5.19% |
| COc1cccc(OC)c1OCCCON1C(=N)N=C(N)NC1(C)C | 2.9% |
| Cc1cc(NCCc2ccccc2)nc(NC(=N)Nc2ccc(Cl)cc2)n1 | 3.82% |
| O=c1cc(NCCCNCc2cc(C(F)(F)F)ccc2F)[nH]c2ccccc12 | 2.17% |
| COc1cccc(CN2CCCC(COC(c3ccc(F)cc3)c3ccc(F)cc3)C2)c1O (centres undefined) | 6.3% |
| CC(CCc1ccccc1)NCC(O)c1ccc2c3c(cccc13)C(=O)N2C (centres undefined) | 0.75% |
| COc1nc2c(CCN3CC[C@H](NCc4cc(C#N)c5c(c4)OCCO5)[C@H](O)C3)ccnc2cc1F | 2.13% |
| Cn1c(/C=C/C(=O)NC2CCC(CCN3CCc4ccc(C#N)cc4CC3)CC2)cc2ccccc21 (centres undefined) | 1.45% |
| CCCCCCN1CCCN(Cc2ccc(C(=O)Nc3ccc(C(C)C)cc3)cc2)CC1 | 19.7% |
| Cc1cc(C2CCN(CCCCNC(=O)c3ccc(NC(=O)c4ccc(Cl)cc4)cc3)CC2)c(C)cc1OC(C)C | 1.52% |
| Cc1ccc(N)cc1-c1nc(NC2CC(C)(C)NC(C)(C)C2)nc2c1ccc(=O)n2-c1c(F)cccc1F | 4% |

| SMILES | IFI |
| --- | --- |
| CCN(C(=O)CSc1cc(C)c2cc(C)cc(C)c2n1)C1CCS(=O)(=O)C1 (centres undefined) | 2.24% |
| CN(C)S(=O)(=O)c1ccc(C(=O)N(c2nc(-c3ccccc3)cs2)C2CCCCC2)cc1 | 2.22% |
| CC(C)(C)c1nn(-c2ccccc2)c2[nH]c(=O)c(CNC3CCCCC3)cc12 | -0% |
| CCN(Cc1ccc(-c2ccc(C(F)(F)F)cc2)cc1)C(=O)Cn1c(SCc2cccc(F)c2F)cc(=O)c2cc(CN3CCCCC3)ccc21 | 13.2% |
| O=C(/C=C/c1ccc(Cl)c(Cl)c1)NCCCCCN1CCCN(C(=O)Nc2cc(F)cc(F)c2)CC1 | 6.71% |
| Cc1cccc2nc(-c3cccc(-c4ccc(NC(=O)C(=O)c5cccn5C)cc4)c3)[nH]c12 | 1.83% |
| CC(=NNC(=N)N)c1ccc2c(c1)Cc1ccccc1-2 | 7.19% |
| Cc1cc(N/N=C/c2cccc([N+](=O)[O-])c2)c2ccc(F)cc2n1 | 0.74% |
| O=C(O)C1Cc2c([nH]c3ccccc23)C(c2ccc(Cl)cc2Cl)N1 (centres undefined) | 1.47% |
| O=S(=O)(c1ccccc1C(F)(F)F)C1CC2CCC(C1)N2S(=O)(=O)c1ccc(Cl)c(C(F)(F)F)c1 (centres undefined) | 1.59% |
| COc1ccc2nccc([C@@H](O)CN3CCC(NCCOc4ccccc4[N+](=O)[O-])CC3)c2c1 | 4.41% |
| COc1ccc(CN2CCN(Cc3cc(Cl)ccc3O)CC2CCO)c(C)c1C (centres undefined) | 15.8% |
| Cc1ccc(Cc2c(C)nc3nc(N)nc(N)c3c2C)cc1 | 2.19% |
| CCC(NCc1ccc(-c2cncc(C(=O)NCC(C)C)c2)cc1)c1ccccc1 (centres undefined) | 3.28% |
| COc1ccc(NS(=O)(=O)c2ccc(C(=O)Nc3ccc(OC(F)(F)F)cc3)cc2)cc1N1CCN(CC2CC2)CC1 | 8.49% |
| CC(=O)Nc1ccc(S(=O)(=O)N(Cc2cccc(Oc3ccccc3)c2)C2CCN(C/C=C(\C)CCC=C(C)C)CC2)cc1 | 3.52% |
| O=C(NCc1ccc(F)cc1)Nc1ccc(-c2cccc(-c3nc4cc(C(F)(F)F)ccc4[nH]3)c2)cc1 | 6.56% |
| COc1cccc2c(NCc3ccccc3)nc(NCCCN3CCCCC3C)nc12 (centres undefined) | 1.44% |
| C=CCc1cc(Br)ccc1OCCCOc1c(C)nc(N)nc1N | 8.03% |
| CCC[C@@H]([C@@H](CC1CCCCC1)C(=O)N[C@H](C(=O)Nc1nccs1)[C@@H](C)OCc1ccccc1)N(O)C=O | 5.3% |
| CCOc1ccc(C(C)NC(=O)C2COc3ccccc3O2)cc1OCC (centres undefined) | 0% |
| Cc1ccc2[nH]c3ccccc3c(=O)c2c1 | 1.52% |
| O=C(NCCN1CCCC1)c1cc(-c2ccc(Cl)c(O)c2)c(-c2ccncc2)o1 | 0.8% |

| SMILES | IFI |
| --- | --- |
| CN(CCNCc1ccc(-c2cccc(-c3nc4ccccc4[nH]3)c2)cc1)S(C)(=O)=O | 0% |
| Cc1cc(N[C@@H](Cc2ccccc2)C(=O)NCCc2ccccc2)nc(NCc2ccccc2C)n1 | 9.52% |
| Cc1ccc2c(Cc3cnc(N)nc3N)cc(C)c(N)c2n1 | 3.79% |
| O=c1cc(NCCCNCc2cccc(OC(F)(F)C(F)F)c2)[nH]c2ccccc12 | 2.17% |
| Cc1cc(NCCC(=O)NCCOc2ccccc2)nc(NCc2ccccc2C)n1 | 4.88% |
| Cn1c(CN2CCC(N3CCc4cc(NC(=O)c5ccco5)ccc43)C2)cc2ccccc21 (centres undefined) | 6.67% |
| CCCCCCNCc1c(O)ccc2c(CNCCCCCC)c(O)ccc12 | 2.19% |
| Cc1cccc2nc(-c3ccc(-c4ccc(CN5CCN(c6ccncc6)CC5)cc4)cc3)[nH]c12 | 14.2% |
| COc1cc2nc(N3CCC(CNC(=O)c4ccc(-c5ccc(C#N)cc5)cc4)CC3)nc(N)c2cc1OC | 2.8% |
| c1ccn2c(-c3ncnc(NCc4ccc5c(c4)CCO5)n3)cnc2c1 | -0% |
| CN1CCN(Cc2ccc(-c3ccc4c(Nc5ccc(F)cc5Cl)ccnc4c3)o2)CC1 | 3.57% |
| CCCCCCc1c(C)nc2cc(OC)ccc2c1O | 0.75% |
| Cc1ccc(C)c(CC(=O)N2CCC(n3c(C)nc4ccc(F)cc43)CC2)c1 | -0% |
| COc1ccccc1C1CCN(CCN2CCC(NC(=O)c3ccc(-c4ccc(C#N)cc4)cc3)CC2)CC1 | 2.75% |
| CC(C)C[C@H](NC(=O)c1cc2cc(OCCN3CCNCC3)ccc2o1)C(=O)NC1CC[C@@H](C)N(C(=O)Nc2ccc(Cl)cc2)CC1=O (some centres undefined) | 3.94% |
| O=C(C=Cc1ccc(Cl)c(Cl)c1)NCCCCCN1CCC(CCNC(=O)c2ccc3c(c2)OCO3)CC1 | 5.26% |
| CC1(C)N=C(N)N=C(N)N1c1ccc(Cl)c(Cl)c1 | 2.82% |
| O=C(NCCNc1ccnc(Nc2ccc(F)cc2)n1)Nc1ccccc1F | 3.08% |
| COc1cccc2c1CCN(CCN1CCC(NC(=O)c3ccc(-c4cccc(Cl)c4Cl)cc3)CC1)C2 | 7.63% |
| Brc1cccc(Nc2nccc(Nc3ccc(Oc4ccccc4)cc3)n2)c1 | 2.22% |
| CN(C)C(=O)c1cc(CNCc2ccccc2)ccc1-c1cccc(CNCc2ccc(-c3ccccc3)cc2)c1 | 6.47% |
| CC(C)Oc1ccc2ccccc2c1CNCCCCCCNCc1c(OC(C)C)ccc2ccccc12 | 18.5% |
| CS(=O)(=O)c1ccc(-c2cncc(Cl)n2)cc1 | 0% |

| SMILES | IFI |
| --- | --- |
| Cc1[nH]c(C)c(-c2cc3ccccc3o2)c(=O)c1Cl | 1.83% |
| COc1cc(Cc2cnc(N)nc2N)ccc1Oc1ccc(N)cc1 | 2.97% |
| C/C=C/COc1ccc2ccccc2c1CNCCCCCCCCNCc1c(OC/C=C/C)ccc2ccccc12 | 16.6% |
| NC1CCN(CCNCc2cccc(-c3ccc(-c4nc5cc(C(F)(F)F)ccc5[nH]4)cc3)c2)C1 (centres undefined) | 4.23% |
| Cc1nc2c(-n3cc(Cn4ccnc4)c4ccccc43)ncnc2n1-c1ccc(Cl)cc1Cl | 1.71% |
| Cc1ccc(-c2cc(C(=O)Nc3ccc(S(=O)(=O)N4CCCCC4)cc3)[nH]n2)c(O)c1 | 0.99% |
| CC(=O)Nc1ccc(OCCCCCOc2ccc(NC(C)=O)cc2Cl)c(Cl)c1 | -0% |
| CCN1CCN(C(=O)NC(C(=O)N2CCCC(COc3ccc(Cc4ccccc4)cc3)C2)c2cccs2)C(=O)C1=O (centres undefined) | 1.46% |
| Cc1cccc2nc(-c3ccc(-c4ccc(CNCCCN5CCCC5=O)cc4)s3)[nH]c12 | 4.85% |
| COc1cccc(Nc2nc(NCCO)c3ccccc3n2)c1 | 1.42% |
| CCCCn1c(SC(C)C)nc2c(c1=O)C1(CCCCC1)Cc1ccccc1-2 | -0% |
| CCCCCCN1CCCN(Cc2ccc(C(=O)Nc3ccc(C)c(F)c3)cc2)CC1 | 10.3% |
| COc1ccc(NC(=O)Nc2cccc(-c3cccc(-c4nc5cc(F)ccc5[nH]4)c3)c2)cc1 | 5.1% |
| COc1ccc(-n2ccnc2SCC(=O)Nc2cc(Cl)ccc2OC)c(OC)c1 | 2.74% |
| O=C(/C=C/c1ccc(Cl)cc1)Nc1ccc2nc(CN3CCCC3)ccc2c1 | 8.33% |
| Cc1cccc(CN2CCC(Oc3ccc(NC(=O)c4cccs4)cc3Cl)CC2)n1 | 3.33% |
| CN1CCCC(CN2CCN(Cc3ccc(-c4ccc(-c5nc6ccccc6[nH]5)s4)cc3)CC2)C1 (centres undefined) | 7.04% |
| CCOc1ccc2nc3cc(N)ccc3c(N)c2c1 | 2.08% |
| N#Cc1ccc(-c2ccc(OCC(O)CN3CCCN(C(=O)C(c4ccc5c(c4)OCO5)N4CCN(C/C=C/c5ccccc5)CC4)CC3)cc2)cc1 (centres undefined) | 6.04% |
| COc1ccc2nccc([C@@H](O)CN3CCC(NCc4cc5cccnc5[nH]4)CC3)c2n1 | 3.88% |
